Data: PubChem BioAssay AID493208 (National Center for Advancing Translational Sciences (NCATS), 2011)
Out of some 44,000 compounds screened, about 340 (0.77%) were called active. Another 5% or so got no clear call; they are omitted. Calls come from the whole dose curve; as a rule, active = well fitted inhibition curve with a large enough effect; inconclusive = small, poorly fitted or top-dose-only effect; inactive = flat fitted curve, though single readings scatter. Some of the results follow.

Assay: Acumen qHTS Assay for Inhibitors of the mTORC1 Signaling Pathway in MEF (Tsc2-/-, p53-/-) Cells: Sytravon; note: nearly all actives have a fitted effect of over 50% in size;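 for activity change, negative = inhibition: plate controls were DMSO for no effect and rapamycin for full effect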
Settings: phospho-rpS6 immunofluorescence/PI, 24 h; series mostly up to 38.3 µM; activity change, negative = inhibition: at the top concentration
Summary of the method: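 Cell-based qHTS: Tsc2-/- p53-/- MEF, 24 h cpd, 37 °C; fix/perm, anti-phospho-S6 Alexa-488 + PI; Acumen 488 nm scan; pS6/PI ratio, % positive cells; rapamycin 7.5 nM = inhibition ref; PI count = viability.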
Potency is the fitted concentration of half-maximal effect.

Activity change, negative = inhibition, inactive:
COc1cccc(NC(=O)CN2C(=O)c3ccccc3Sc3ncccc32)c1 -4.27%, Cc1ccc(-n2nc(C)c3c(C(F)(F)F)cc(-c4cccnc4)nc32)cc1Cl -0.589%, COc1ccccc1C(=O)Nc1c(C(=O)NC(C)(C)C)oc2ccccc12 0.419%, COc1ccc(S(=O)(=O)N2CCN(c3ccccc3OC)CC2)cc1 -14.1%, CCOC(=O)c1ccc(NC(=O)c2cn3c4c(ccc(Cl)c4c2=O)OC(C)C3)cc1 (configuration not stated) -0.312%, COc1cc(OC)c(N(C)C(=O)Nc2cn(CC(C)C)c(=O)c3ccccc23)cc1Cl 2.82%, CCCc1nn2c(=O)cc(COC(=O)CNC(=O)COc3ccc(C)cc3)nc2s1 3%, Cc1ccc(-c2nc(C)c(CCNC(=O)c3ccccc3Br)s2)cc1 -10.7%, CC1CCN(C(=O)CSc2nc(-c3ccc(F)cc3)cc(C(F)(F)F)n2)CC1 4.95%, CCOC(=O)c1sc(NC(=O)c2c(-c3ccccc3)c(-c3ccccc3)nn(C)c2=O)nc1C 3.01%, CCc1ccc(Nc2nc3ccccc3nc2NS(=O)(=O)c2ccccc2)cc1 -13.9%, Cc1cccc(-n2c(=O)c3ccccc3n(Cc3ccc(F)cc3)c2=O)c1 -8.52%, COc1ccc(NC(=O)C2=C(C)Nc3nc(SCc4ccc(Cl)cc4)nn3C2c2cccc(OC)c2OC)cc1 (configuration not stated) -27.4%, O=C(Cn1c(=O)nc(-c2ccccc2)c2ccccc21)Nc1ccc(Cl)cc1F -1.23%, Cc1ccc(NC(=O)/C=C/c2ccccc2Cl)cc1Cl 5.71%, Cc1cc2c(cc1S(=O)(=O)Nc1cc(C(F)(F)F)cc(C(F)(F)F)c1)OCC(=O)N2 4.02%, Cc1nc2cccnc2n1C1CCN(C(=O)Nc2ccc(Cl)cc2)CC1 6.23%, COC(=O)Cc1c(C)c2ccc3c(c2oc1=O)CN(Cc1ccccc1Cl)CO3 -1.83%, CCc1c(C)sc2c1CCN(Cc1ccccc1F)C2c1ccccc1 (configuration not stated) 8.6%, CCOc1ccc(-c2c(C)nn3c(C)c(C(=O)NCCc4ccc(C)cc4)cnc23)cc1OCC -29%, O=C(NCCSc1c[nH]c2ccccc12)c1ccccc1Cl 1.19%, CNC(=O)CN1C(=O)COc2ccc(S(=O)(=O)N3CCC(C)CC3)cc21 0.857%, COCCNC(=O)c1ccccc1NC(=O)c1nsc2ccccc12 -19.4%, COc1ccc2[nH]cc(CCN=C(NC(=O)c3ccccc3OC)Nc3nc(C)cc(C)n3)c2c1 -10.8%, CCc1cc2c(cc3c(=O)n(CC(=O)NCCc4ccc(OC)cc4OC)nc(CC)n32)s1 2.5%, Cc1ccc(-n2cnnn2)cc1S(N)(=O)=O -21.6%

Potency, active:
CCCCOC(=O)c1ccc(NC(=O)c2sc3nc(C)cc(C)c3c2N)cc1 10.4 µM
